According to the RNAGym collection of RNA variant scans (doi:10.7554/elife.90254):
The source gives no read counts; variants with many changes may rest on few reads.

B1: LINE1-mini (parent)
chain: GGCAGAGCUCAACACAGCGUGGCAAAGUGGCUGUGGCUAGACUGCC

Variants of: B1
Assay: self-cleavage, relative activity (ratio to wild type); higher = more cleavage; in vitro, sequencing; the parent is a self-cleaving ribozyme

Row | Variant | self-cleavage
1 | A6U A11U C31A A41G | 0.01
2 | A6G A24C G30U | 0.06
3 | A6U A12G U20G G40U A41G | 0.05
4 | A6U U28A G44A | 1.04
5 | A6G A25G G29A | 0.02
6 | A6U A12C C18G U20C | 0.02
7 | A6G C18A U32A C37A G44C | 0.02
8 | A6G C10G C37U G40A | 0
9 | A6G C8G A14U U20G A26U G30A C42U | 0.01
10 | A6G C13G U20A U34G | 0.03
11 | A6U C8U C45U | 0.18
12 | A6U G22C G30C G35A C42G | 0.1
13 | A6G G19U A24U U32G | 0.02
14 | A6U A14U C15G A26G A41C | 0.06
15 | A6U C10G C13U A26U U38G | 0.01
16 | A6U A14G C18G A24C A25G | 0.01
17 | A6G C8A A11C G19C U32C | 0.03
18 | A6U A12G A24U A39C | 0.06
19 | A6U A12C C42G C46G | 0.01
20 | A6U G30C A41G | 0.86
21 | A6U C42A C45U | 0.09
22 | A6G U9A G19C | 0.11
23 | A6U G36U G40C A41G | 0.37
24 | A6G C8G C10A A26G U28G C37U U38C C45A | 0

Row | Variant | self-cleavage
25 | A6U G30C G36C | 0.21
26 | A6U U20G G29A C31U U34C | 0.01
27 | A6G G21U C37A | 0.12
28 | A6G A25C C45G | 0.03
29 | A6G G36C C37G | 0.03
30 | A6U A11C C37A | 0.01
31 | A6U C23U G29A | 0.59
32 | A6U U9A C18U A39G A41U | 0.02
33 | A6G C13U C23G | 0.04
34 | A6U G29A G44A | 1.38
35 | A6G C10A G27U | 0.25
36 | A6G A24G U43A C46A | 0.08
37 | A6G G7A C37U G44A | 0.03
38 | A6G C15A G21A | 0.07
39 | A6U C13A G44A | 0.1
40 | A6G A41U C46U | 0.09
41 | A6G G30C G35U | 0.04
42 | A6G U20A G27C | 0.11
43 | A6G C15G G17C C31U | 0.02
44 | A6U A24G G35U G40A C45A | 0.09
45 | A6G C10A C13G | 0.02
46 | A6G C8A U38G | 0.04
47 | A6G C8G G19U U28A C46U | 0.02
48 | A6U C8A A24C C31U | 0.32

Row | Variant | self-cleavage
49 | A6U A11U C13A A24C G33U U38A | 0
50 | A6G C8G C10G G21C | 0.01
51 | A6G C13U C15G A26C G40U | 0.01
52 | A6U A11U C18U G19U U20C G36U | 0.03
53 | A6U A12U C15G | 0.01
54 | A6U G19A G22A A26U G29C | 0.29
55 | A6U G17C G22U C23U U38A G40U C45A | 0.11
56 | A6U A25G C31A | 0.2
57 | A6G A16U G21A | 0.01
58 | A6G U9A C42A | 0.02
59 | A6U C15A U28C | 0.04
60 | A6U G19U A26C G30C | 0
61 | G7A A11G G29C U38C G40C | 0.01
62 | A6U C13G C23G G30A | 0.18
63 | A6U U20A G21C U28A | 0.34
64 | A6G U20C G27A | 0.04
65 | A6U C10A U20A G29C G35A C37A | 0.01
66 | A6G A25U G44A | 0.22
67 | A6G C10U G33C | 0.03
68 | A6U U32A C45U | 0.16
69 | A6G U32G G36U | 0.03
70 | A6U C13A U28G C37U | 0.2
71 | A6G G7C C18G U32A U43A G44C | 0.01
72 | A6U C10G C13G C15G U43C | 0

Row | Variant | self-cleavage
73 | A6G A16U G19U G33A C37U | 0.03
74 | A6G A41U C42G U43G | 0.02
75 | A6G C15G G22C U28A G40U | 0.2
76 | A6U C18G U34G G36C | 0.01
77 | A6G A16C G22A G35U | 0.01
78 | A6G A25U U34G | 0.03
79 | A6G G7A G19C G27A | 0.14
80 | A6U C23A A25G | 0.2
81 | A6U A12U C37G A41G | 0.01
82 | A6U C18A C31U C42G | 0.02
83 | A6U G29A G33A G35U C45U | 0.3
84 | A6U C23A A25G G30U U34G G40U | 0.03
85 | A6G G36A C37A | 0.08
86 | A6G G19U U20G G36U | 0.03
87 | A6G C13G G27A | 0.02
88 | A6U C10A C18G C46A | 0.03
89 | A6G C8U A14U G17A C23G A25U C31U | 0.1
90 | A6U C10A G21A G44U | 0.02
91 | A6G C8U C13G C23U C31G | 0.01
92 | A6U C10G C18A | 0.02
93 | A6U G33A U43A | 0.06
94 | A6G C18G G30C | 0.05
95 | A6U A12G G19C A26G U28C C46A | 0
96 | A6G G7C A24C C37A | 0.08

Row | Variant | self-cleavage
97 | A6G G36A G40U | 0
98 | A6U G7C C10A C46U | 0.01
99 | A6U C8G G29U U34C C46A | 0.04
100 | A6G G19C C23G G36A | 0.01
101 | A6G C13G U20A G29C C46U | 0.02
102 | A6U C10U G44C | 0.21
103 | A6U U20C A24U A25U | 0.72
104 | A6U A12G G33U | 0.2
105 | A6U U28C G33C G40U | 0.09
106 | A6G C10U A11C | 0.07
107 | A6U G22A U38A G44C | 0.06
108 | A6G C13G C42U | 0.01
109 | A6G G27U C31U | 0.04
110 | A6G G27U C31G | 0.01
111 | A6G A25U G35U C37U | 0.03
112 | A6G A16C G33C G36C C42A U43A C45U | 0
113 | A6U A16C G36A | 0.02
114 | A6G C8G A14U G27U U38A A39U C45A | 0.02
115 | A6G G7C A12C G22A U28C G30U C37U | 0.01
116 | A6U A24U G33U U34G C45U | 0.02
117 | A6G G19U A39G | 0.02
118 | A6G G22A C45U | 0.22
119 | A6U G21A A25U G27A | 0.28
120 | A6U C10A C13A A41C | 0.02

Row | Variant | self-cleavage
121 | A6U C37G C45U | 0.03
122 | A6U C18A C42U | 0.05
123 | A6G G19C C31G | 0.01
124 | A6U C10A G29A C37U | 0.01
125 | A6U C13A C18U C42A U43C | 0.08
126 | A6G C23G A25U | 0.02
127 | A6U C10A G22U U32G G44A | 0
128 | A6U C8G U9A G19C A24U | 0
129 | A6U G35C C42A | 0.05
130 | A6G A16U U38G G40U C45G | 0.02
131 | A6U U38C C46A | 0.05
132 | A6G A26U G27U | 0.02
133 | A6G C13G G21A | 0.03
134 | A6U A14U G33C | 0.13
135 | A6U G7U G22A G40U | 0.28
136 | G7A A11C A14U | 0.02
137 | A6U G22U C23G A39C U43A G44C | 0.01
138 | A6G U20A C37G | 0.01
139 | A6G A16U A24G G29U | 0.11
140 | A6G G27C U32C G35C | 0.02
141 | A6U C23G C31U | 0.21
142 | A6U G22U U28A G29C U32C | 1.47
143 | A6G G17A C18A | 0.14
144 | A6U A16G C45A | 0.15

Row | Variant | self-cleavage
145 | A6U G7U C8A C31G U43A | 0.28
146 | A6U G7U C10U | 0.01
147 | A6U G7U C10A | 0.02
148 | A6U A24U G35A G44C | 0.05
149 | A6U G22A U38C | 0.29
150 | A6U A26C A39G | 0.04
151 | A6U A24G G27C | 0.18
152 | A6G G7A U9A U28G G44U C46A | 0.04
153 | A6U C8G C10G G19U A24G G29A C45A | 0.01
154 | A6G U20C A26C G27A C46A | 0.01
155 | A6G G22U A26G | 0.05
156 | A6U A12U G19A G44U | 0.1
157 | A6U C13A A14G G21U G27C | 0.49
158 | A6U G21U U34G | 0.51
159 | A6G C18U G29C U32A G36C | 0.03
160 | A6G C10G G29C | 0.03
161 | A6G G17U C42U | 0.04
162 | A6G U32C G40A | 0.01
163 | A6G C18G G22U U28G G40A | 0.07
164 | A6G C15U G17C | 0.32
165 | A6G G29C G30A | 0.07
166 | A6U U20A C45G | 0.16
167 | A6U C10A C13G A14C U28C | 0.05
